Laboratory results taken from PubChem BioAssay AID1346428 (National Center for Advancing Translational Sciences (NCATS), 2018).
The campaign covered roughly 48,000 compounds. About 1,200 (2.5%) were called active. Another 2% or so got no clear call; they are omitted.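 The calls were made as follows: active = activation of at least 60% and not above a set upper limit (about 1 call in 100 departs from these limits); inconclusive = activation of 40% to 60%, or above that upper limit; inactive = activation under 40%.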 The list shows a part of the results.
Also: 0% is about no effect.

Each compound was assayed against Probable G-protein coupled receptor 32 (Homo sapiens) (UniProt O75388) (assay: qHTS for Agonists of Human Resolvin D1 Receptor DRV1). Settings: CHO-K1 GPR32 beta-arrestin PathHunter luminescence, 90 min; at 76.9 µM; stronger effect = higher value; zero percent set by DMSO-only wells.
Sequence of UniProt O75388 (O75388 whole entry, looked up): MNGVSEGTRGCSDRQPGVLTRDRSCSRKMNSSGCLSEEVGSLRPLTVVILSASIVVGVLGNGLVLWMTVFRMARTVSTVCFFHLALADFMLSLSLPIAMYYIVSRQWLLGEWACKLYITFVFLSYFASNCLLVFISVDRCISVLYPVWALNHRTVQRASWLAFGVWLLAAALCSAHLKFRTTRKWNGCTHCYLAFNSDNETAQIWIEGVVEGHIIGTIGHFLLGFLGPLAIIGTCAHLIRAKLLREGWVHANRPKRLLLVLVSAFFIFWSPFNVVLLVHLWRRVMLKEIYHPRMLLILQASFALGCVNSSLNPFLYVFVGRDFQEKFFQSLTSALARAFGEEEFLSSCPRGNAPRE
Summary of the method: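 Step 1: seed CHO-K1 GPR32 beta-arrestin cells, 2,500/well, overnight at 37 °C. Step 2: add compounds, 90 min at 37 °C. Step 3: detection reagent, 1 h ambient, then luminescence.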
With `COc1ccc(N2CCN(C(=O)c3noc4c3CCCCC4)CC2)cc1` the activation was inactive: -19.9%.
With `O=c1oc2c(CN3CCOCC3)c(O)ccc2cc1-c1ccccc1` the activation was inactive: -36.5%.
With `CC(=O)c1ccc(NC(=O)c2sc(-n3nc(C)c(Cc4ccc5c(c4)OCO5)c3C)nc2C)cc1` the activation was inactive: -6.65%.
`CCC1CCCCN1CCCNC(=O)c1ccc2c(c1)N(Cc1cccc(Cl)c1)C(=O)c1ccccc1S2(=O)=O` (centres undefined) was tested, and the activation was inactive: -44.8%.
`O=C(Nc1ccc2oc(-c3ccc(Br)cc3)nc2c1)c1cc2ccccc2o1` was tested, and the activation was inactive: 13.2%.
`COc1cccc(CNCc2c(C(=O)O)n(Cc3ccc(C)cc3)c3cc(C)ccc23)c1OC` was tested, and the activation was inactive: 9.1%.
For `COc1ccc(-c2nc3ccccc3o2)cc1NC(=O)c1cc(Br)ccc1OC`, the activation was inactive: 0.332%.
With `COc1ccc(C)cc1NC(=O)NCCn1nnc2cc(S(=O)(=O)N(C)C)ccc21` the activation was inactive: -9.71%.
For `Cc1nnc(NC(=O)CSc2nc3c([nH]c4ccccc43)c(=O)n2-c2cccc(Cl)c2)s1`, the activation was inactive: -15.9%.
`CCOC(=O)c1ccccc1NC(=O)c1sc2nc(-c3ccc(F)cc3)cn2c1C` was tested, and the activation was inactive: -15%.
In the case of `O=C(NCCc1nc2ccccc2n1Cc1ccc(Cl)cc1)c1ccccc1`, the activation is reported as active: 80.5%.
With `CC(C(=O)O)c1ccc2c(c1)[nH]c1ccc(Cl)cc12` (centres undefined) the activation was inactive: 17.9%.
For `COc1ccc(CCNC(=O)c2cnc3sc(N4CCCCCC4)nn3c2=O)cc1`, the activation was inactive: 6.15%.
`Cc1ccc(C(=O)OCc2cc(=O)n3nc(CC(C)C)sc3n2)cc1` was tested, and the activation was inactive: -11.2%.
For `O=C(Cn1cc(S(=O)(=O)Cc2ccccc2F)c2ccccc21)Nc1ccc(F)c(Cl)c1`, the activation was inactive: 10.7%.
With `COc1ccc(CNc2ncnc3c2c(-c2ccccc2)cn3-c2ccc(C)c(Cl)c2)cc1` the activation was inactive: -25.4%.
In the case of `COc1ccc2c(CNCc3ccco3)c(C(=O)O)n(Cc3cccc(F)c3)c2c1`, the activation is reported as inactive: -2.21%.
For `COc1ccc(NC(=O)Cn2c(=O)n(-c3ccc(OC)cc3)c(=O)c3sc4ccccc4c32)cc1`, the activation was inactive: 2.1%.
With `Cn1c(NCCCO)nc2c1c(=O)n(Cc1cccc(F)c1)c(=O)n2C` the activation was inactive: -12%.
In the case of `COc1ccc(C(=O)Nc2ccc(-c3nc4ccccc4s3)c(Cl)c2)cc1Cl`, the activation is reported as inactive: 21.8%.
`CCCN(CCC)C(=O)C1CCN(c2cc(C)nc3c(-c4ccc(Cl)cc4)c(C)nn23)CC1` was tested, and the activation was inactive: -4.1%.
With `COc1cc(C(=O)Nc2cc(C)c(O)c(-c3nc4ccccc4s3)c2)cc(OC)c1OC` the activation was inactive: -1.16%.
For `Cc1cc2nc(-c3ccc(OCc4ccccc4F)cc3)cc(C(F)(F)F)n2n1`, the activation was inactive: -6.67%.
With `CCCc1nn2c(=O)cc(COC(=O)c3ccc4c(c3)OCO4)nc2s1` the activation was inactive: 27%.
With `Cc1ccc(C)c(NC(=O)c2oc(=O)c3ccccc3c2-c2ccccc2)c1` the activation was inactive: -1.33%.
In the case of `Cc1ccc(-c2c(C(=O)Nc3ccccc3F)oc(=O)c3ccccc23)cc1`, the activation is reported as inactive: -21%.
For `Cn1c(NCCN)nc2c1c(=O)n(Cc1ccccc1)c(=O)n2C`, the activation was inactive: -32.6%.
`Cc1ccc(C)c(Cn2c(SCC(=O)NCc3ccccc3)nc3ccccc32)c1` was tested, and the activation was inactive: -29%.
`CCOC(=O)c1cccc(NC(=O)C2=C(C)C(=O)OC23CCCCC3)c1` was tested, and the activation was inactive: -24.2%.
`Cc1ccc(C)c(N2CCN(C(=O)Cn3cnc4nc5c(cc4c3=O)CCCC5)CC2)c1` was tested, and the activation was inactive: 5.38%.
In the case of `COc1ccccc1C(=O)NC(=O)Nc1ccc(-c2cc(C(F)(F)F)nn2-c2ccccc2)cc1`, the activation is reported as inactive: -5.62%.
With `CCc1ccc(N(CC)C(=O)c2cn(C)c(=O)c3cc(OC)c(OC)cc23)cc1` the activation was inactive: -4.77%.
With `NS(=O)(=O)c1ccc(N2CCCCS2(=O)=O)cc1` the activation was inactive: -3.77%.
For `CCOc1ccc2c(c1)NC(c1ccc(OCC)c(OCC)c1)=NC(c1ccc(F)cc1)=N2`, the activation was inactive: -35%.
For `CCc1ccc(C(=O)c2cn(CC(=O)Nc3ccc4c(c3)OCO4)c3ccc(Cl)cc3c2=O)cc1`, the activation was inactive: 34.3%.
With `Cc1ccc(NC(=O)Cn2nc(C(F)(F)F)c3c2CCCC3)cc1` the activation was active: 77.1%.
In the case of `CCN(CC)c1ccc(NC(=O)C2CCN(S(=O)(=O)c3c(C)noc3/C=C/c3ccccc3F)CC2)c(C)c1`, the activation is reported as inactive: -22.4%.
With `CC(C)(C)C1CCc2c(sc3nc(-c4cc5cc(Cl)ccc5oc4=O)[nH]c(=O)c23)C1` (centres undefined) the activation was inactive: 2.58%.
In the case of `CCn1c(CNC(=O)c2ccc(OC)cc2)nnc1SCC(=O)Nc1cccc(C)c1`, the activation is reported as inactive: 15.1%.
`Cc1ccc(S(=O)(=O)N2CCCc3cc(NC(=O)c4ccc(Cl)cc4)ccc32)cc1` was tested, and the activation was inactive: -10.5%.
`CCOc1ccc(CCNC(=O)c2c3c(nc4ccccc24)C(=O)N(C2CCCCC2)C3)cc1` was tested, and the activation was inactive: -0.61%.
For `NC(=S)NCCC[C@H](N)C(=O)O`, the activation was inactive: -3.51%.
For `Cc1ccc(S(=O)(=O)NCCc2nnc3ccc(SCC(=O)Nc4c(C)cc(C)cc4C)nn23)cc1`, the activation was inactive: -9.11%.
`COc1ccccc1NC(=O)c1cc2cc3ccc(OC)c(Cl)c3nc2s1` was tested, and the activation was inactive: -2.48%.
For `COC(=O)c1c(NC(=O)c2cc(=O)c3cc(C)cc(C)c3o2)sc2c1CCC2`, the activation was inactive: -3.58%.
In the case of `CCOC(=O)c1ccc(NC(=O)c2nc(SCc3ccc(F)cc3)ncc2Cl)cc1`, the activation is reported as inactive: -27.7%.
For `O=C(NCCc1ccccc1Cl)c1cc2ccccn2n1`, the activation was inactive: 4.73%.
In the case of `Cc1ccc(CC(=O)NCc2nc(-c3ccccc3)no2)cc1`, the activation is reported as inactive: -22.2%.
`CCCCn1c(=O)c2oc3ccccc3c2n(Cc2ccc(C)cc2)c1=O` was tested, and the activation was inactive: -20.5%.
`Cc1cc(SCC(=O)Nc2ccc(F)cc2F)nc(=O)[nH]1` was tested, and the activation was inactive: -2.06%.
For `COc1ccc2ncc3c(-c4ccc(C)c(C)c4)nn(CC(=O)Nc4ccccc4)c3c2c1`, the activation was inactive: -14.6%.
With `CCc1ccc(CNC(=O)C2COc3ccccc3C2)cc1` (centres undefined) the activation was inactive: -11.5%.
For `Cc1cccc(CN2C(=O)c3ccccc3S(=O)(=O)c3ccc(C(=O)OCC4CCCO4)cc32)c1` (centres undefined), the activation was inactive: -48.5%.
`Cc1cccc(C(=O)Nc2cc(-c3ccccc3F)nn2-c2ccccc2)c1` was tested, and the activation was inactive: 15%.
